Data: patent US20220193134A1, “CO-USE OF LENALIDOMIDE WITH CAR-T CELLS” (CRISPR THERAPEUTICS AG, priority 2020, published 2022)

Experiments:
anti-BCMA CAR-T cells [1] = test: In vitro expansion of anti-BCMA CAR-T cells in the presence or absence of Lenalidomide; format: cell-based, human; details: Lenalidomide 0.5 uM to 10 uM, in the tested time period
Protocol: Anti-BCMA CAR-T cells were used in this Example as exemplary CAR-T cell. The anti-BCMA CAR-T cells express an anti-BCMA CAR comprising the amino acid sequence of SEQ ID NO: 131, a disrupted TRAC gene having the anti-BCMA CAR coding sequence inserted, and a disrupted β2M gene.
The CAR-T cells were thawed and expanded in-vitro in the presence or absence of Lenalidomide. Multiple concentrations of Lenalidomide were added to the culture media, to evaluate the activity of Lenalidomide across a wide range of concentrations, from 0.5 uM to 10 uM.

[2] = system: CAR-T cells expressing anti-CD19 CAR; test: Cell expansion and viability of CAR-T cells expressing anti-CD19 CAR; format: cell-based, human
[3] = system: CAR-T cells expressing anti-CD70 CAR; test: Cell expansion and viability of CAR-T cells expressing anti-CD70 CAR; format: cell-based, human
anti-BCMA CAR-T cells [4] = test: anti-BCMA CAR-T cell expansion in mouse peripheral blood (human CD45+ staining, BD TruCount); format: in vivo, mice; details: co-administration of Lenalidomide, dose dependent, 2 & 3 weeks after CAR-T dosing
Protocol: Presence of human cells in mouse blood was evaluated using staining for human CD45+, and the number of human cells per ul of mouse blood was calculated using BD TruCount vials per manufacturer's protocol. Human T cells were quantified in mouse blood ˜1, 2 & 3 weeks after the CAR-T cells dosing to mice.

NK cells = test: Cytokine secretion after co-culture of NK cells with K562 cells; format: cell-based; details: co-culture with K562, Lenalidomide added
Protocol: Additionally, cytokine secretion was tested at the end of the co-culture described above, following co-culture of NK cells with B2M^neg T cells, K562 cells (a B2M^neg cell line, commonly used as a positive control for activation of NK cells due to lack of B2M expression), and unedited T cells (used as a negative control for NK cells activation).

PBMCs (responder cells) = test: MLR assay (mixed lymphocyte reaction); format: cell-based; details: allo co-culture, donor 2, various Lenalidomide concentrations
Protocol: Next, allo-reactivity towards edited T cells (B2M^neg/TCR^neg) was tested using an MLR assay (mixed lymphocyte reaction). In this assay PBMCs (“responder cells”) were mixed with irradiated auto or allo T cells (“stimulator cells”). At the end of the assay, the activation of the responder cells was evaluated by measuring the cell proliferation in the co-culture, with cell proliferation serving as a proxy for immune activation. In the assay shown in FIG. 3C, both auto (donor 1) & allo (donor 2 & 3) were evaluated for immune activation following co-culture. […] As expected, immune activation was reduced upon deletion of B2M & TRAC from the T cells, as evident by the reduced proliferation in both donors tested.

anti-CD19 CAR-T cells [5] = test: Editing efficiency of anti-CD19 CAR-T cells; format: cell-based, human
Excerpt: (§1) TRAC-% was above 90% on Lenalidomide treatment or non-treated cells on both day 6/7 and day 13/15.

anti-CD70 CAR-T cells [6] = test: Editing efficiency of anti-CD70 CAR-T cells (Process 1 and Process 2); format: cell-based, human
Protocol: as §1
FIGS. 5H-5K show the CAR+%, TRAC-%, B2M-% and CD70-%. CD70 electroporation was performed on the day 0 (T cell thawing day) for anti-CD70 CAR-T cell Process 1, but on day 1 (24 hr post activation) for anti-CD70 CAR-T cell Process 2. […] Lenalidomide decreased CD70-% on anti-CD70 CAR-T electroporated cells (Process 1) by about 7% but not on anti-CD70 CAR-T electroporated cells (process 2). CAR+% from anti-CD70 CAR-T cells (Process 2) was 88% on day 7 and 80% on day 14 (FIG. 5H). CAR+% from anti-CD70 CAR-T cells (Process 1) was 94% on day 7 and 82.5% on day 14. (FIG. 5H). TRAC-% of anti-CD70 CAR-T cells (from both processes) were around 97-98% on day 7 and 93%-98% on day 14 (FIG. 5I). B2M-% of the anti-CD70 CAR-T cells from Process 1 and Process 2 were around 80-83% on day 7 and 70%-85% on day 14 (FIG. 5J).

anti-CD70 CAR-T cells [7] = test: CD4 and CD8 ratio of anti-CD70 CAR-T cells; format: cell-based, human; details: day 8 and day 15, vs untreated anti-CD70 CAR-T cells
Excerpt: Compared with untreated anti-CD70 CAR-T cells, Lenalidomide treatment didn't change CD4+% and CD8+% on day 8 and day 15. Similar to the anti-CD19 CAR-T cells, there was skewing of CD8+ cells at day 15, which was independent from the timing of CD70 electroporation and Lenalidomide treatment.

CD19+ Raji cells = test: Flow cytometry-based cytotoxicity assay of anti-CD19 CAR-T cells; format: cell-based; details: anti-CD19 CAR-T cells expanded with Lenalidomide, harvested day 6/7 and day 13/15, 24 hours, varying ratios, two studies
Protocol: CD19+ Raji cell line was used for the anti-CD19 CAR-T cells, a BCMA+ cell line was used for the anti-BCMA CAR-T cells, and a CD70+ cell line was used for the anti-CD70 CAR-T cells.
For anti-CD19 CAR-T cells, CD19+ Raji cells were labeled with eFluor670 and incubated with CAR-T cells at varying ratios. CAR-T cell cytotoxicity was analyzed at 24 hours by assessing labeled cells in the live gate compared to control sample.

MM.1S subcutaneous tumor = MM.1S subcutaneous tumor model in mice; details: single arm treatment compared to no treatment arm; Lenalidomide 1.5 or 10 mg/kg; 3 million CAR-T cells
anti-CD19 CAR-T cells [8] = test: CD4 and CD8 ratio of anti-CD19 CAR-T cells
anti-BCMA CAR-T cells [9] = test: CD4 and CD8 ratio of anti-BCMA CAR-T cells

Which results are given for `Nc1cccc2c1CN(C1CCC(=O)NC1=O)C2=O` (stereo not drawn) [Lenalidomide]?
fold higher expansion of anti-BCMA CAR-T cells (anti-BCMA CAR-T cells [1]): 5-30 fold; cell expansion and viability [2]: enhance cell expansion and viability; cell expansion and viability [3]: enhance cell expansion and viability; numbers / expansion of the CAR-T cells in mouse blood (anti-BCMA CAR-T cells [4]): significantly increase; cytokine secretion of NK cells (NK cells): Upregulation of secretion of several cytokines; allo reactivity (proliferation) towards unedited T cells (PBMCs (responder cells)): may in some cases enhance allo reactivity; effect on CAR+% (anti-CD19 CAR-T cells [5]; Lenalidomide treatment): did not significantly alter; effect on B2M-% (anti-CD19 CAR-T cells [5]; lenalidomide treatment, day 6/7 and day 13/15): without significant changes; changes of TRAC-% and B2M-% (anti-CD70 CAR-T cells [6]; Lenalidomide's treatment): No significant changes; decrease of CD70-% (anti-CD70 CAR-T cells [6]; anti-CD70 CAR-T electroporated cells (Process 1)): about 7%; decrease of CD70-% (anti-CD70 CAR-T cells [6]; anti-CD70 CAR-T electroporated cells (process 2)): not; CD4+% and CD8+% (anti-CD70 CAR-T cells [7]): didn't change; killing capacities (percentage of cell lysis) (CD19+ Raji cells): comparable or higher killing capacities; effect on tumor regression and mouse survival (MM.1S subcutaneous tumor): minimal effect; skewing of CD8+ cells (anti-CD19 CAR-T cells [8]; day 6/7 and day 13, study #1): not significantly impacted; increase of CD8+ cells (anti-CD19 CAR-T cells [8]; lenalidomide treated cells, day 15, study #2): 10%-14%; overall distribution of CD4 and CD8 cells (anti-BCMA CAR-T cells [9]; day 8): not significantly altered; increase of CD8 positive cells (anti-BCMA CAR-T cells [9]; day 8, dose-dependent, vs Lenalidomide untreated cells): 7-15%
